The target in assay [1] is T1, human GPRC5D (human, UniProt Q9NZD1 1-345).
T1 construct: the cell line is named under assay; also called hGPRC5D; G protein coupled receptor C5 family subtype D
Put plainly: FACS, MolP-8 cells. Here is the method:
(§1) The desired cells were scale-up cultured in a T-75 cell culture flask to the logarithmic growth phase. NCI-H929, MolP-8 and RPMI-8226 cells were collected and washed with PBS buffer 2 times. After counting the cells, the cell pellet was resuspended with [PBS+2% (w/v) BSA] blocking solution to 2×10⁶ cells/ml, and added to a 96-well FACS reaction plate at 50 μl/well, and then the chimeric antibody test sample was added at 50 μl/well, and incubated on ice for 1 h. […] The obtained mixture was centrifuged and washed 3 times with a PBS buffer, and FACS (FACS CantoII, purchased from BD Company) was used for detection and result analysis. Data analysis was performed by software (Flowjo) to obtain the mean fluorescence intensity (MFI) of the cells. Then a software (GraphPad Prism8) was used for analysis, the analysis results are shown in Table 9 and FIGS. 9A-9C, 10A-10C and 11A-11C.
A general note: In flow cytometry, cells or beads pass a laser one at a time.

For assay [2], the target named is T1, human GPRC5D. Put plainly: FACS, NCI-H929 cells. How it is done:
as §1

Assay [3] addresses T2, human GPRC5A (human, UniProt Q8NFJ5 1-357).
T2 construct: Printed as Uniprot: Q8NFJ5-1; also called hGPRC5A; on CHOK1-hGPRC5A cells
T2 sequence: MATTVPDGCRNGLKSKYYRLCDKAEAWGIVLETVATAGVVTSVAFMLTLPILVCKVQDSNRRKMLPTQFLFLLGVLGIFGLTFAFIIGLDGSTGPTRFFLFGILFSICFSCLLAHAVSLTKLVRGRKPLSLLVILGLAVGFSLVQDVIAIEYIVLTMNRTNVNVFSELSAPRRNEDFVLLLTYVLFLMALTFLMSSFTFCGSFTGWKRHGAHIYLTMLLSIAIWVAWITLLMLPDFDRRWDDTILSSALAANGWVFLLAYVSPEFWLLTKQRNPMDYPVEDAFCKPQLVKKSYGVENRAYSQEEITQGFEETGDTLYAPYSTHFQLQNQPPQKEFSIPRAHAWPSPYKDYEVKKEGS
Put plainly: FACS, CHOK1-hGPRC5A cells.

Assay [4] concerns the target T3, human GPRC5B (human, UniProt Q9NZH0 29-403).
T3 construct: Printed as Uniprot: Q9NZH0-1; also called hGPRC5B; on CHOK1-hGPRC5B cells
T3 sequence: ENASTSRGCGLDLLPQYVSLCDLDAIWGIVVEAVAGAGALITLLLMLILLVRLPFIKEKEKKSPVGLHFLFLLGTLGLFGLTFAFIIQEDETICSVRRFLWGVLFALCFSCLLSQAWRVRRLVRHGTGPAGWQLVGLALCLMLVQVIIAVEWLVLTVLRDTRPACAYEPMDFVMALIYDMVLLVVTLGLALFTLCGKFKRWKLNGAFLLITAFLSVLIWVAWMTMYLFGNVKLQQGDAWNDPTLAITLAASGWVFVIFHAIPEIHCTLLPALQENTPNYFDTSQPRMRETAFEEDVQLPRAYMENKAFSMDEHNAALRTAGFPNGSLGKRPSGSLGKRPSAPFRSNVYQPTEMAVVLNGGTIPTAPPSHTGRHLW
Put plainly: FACS, CHOK1-hGPRC5B cells.

Assay [5] deals with T4, human GPRC5C (human, UniProt Q9NQ84 24-441).
T4 construct: also called hGPRC5C; on CHOK1-hGPRC5C cells
T4 sequence: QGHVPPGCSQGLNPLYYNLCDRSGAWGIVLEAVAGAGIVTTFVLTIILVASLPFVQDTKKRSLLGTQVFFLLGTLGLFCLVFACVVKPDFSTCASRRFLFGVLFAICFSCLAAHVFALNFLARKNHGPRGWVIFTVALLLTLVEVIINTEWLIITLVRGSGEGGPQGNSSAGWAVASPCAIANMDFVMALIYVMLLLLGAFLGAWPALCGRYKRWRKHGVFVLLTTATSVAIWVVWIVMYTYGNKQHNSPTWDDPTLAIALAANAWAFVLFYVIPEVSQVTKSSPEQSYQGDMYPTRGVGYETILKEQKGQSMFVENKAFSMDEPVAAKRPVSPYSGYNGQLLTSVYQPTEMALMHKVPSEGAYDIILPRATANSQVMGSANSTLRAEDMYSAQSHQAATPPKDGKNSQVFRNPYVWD
Put plainly: FACS, CHOK1-hGPRC5C cells.

The target of assay [6] is T1, human GPRC5D. Put plainly: FACS, RPMI-8226 cells. Here is the method: as §1
T1 sequence (Q9NZD1 whole entry): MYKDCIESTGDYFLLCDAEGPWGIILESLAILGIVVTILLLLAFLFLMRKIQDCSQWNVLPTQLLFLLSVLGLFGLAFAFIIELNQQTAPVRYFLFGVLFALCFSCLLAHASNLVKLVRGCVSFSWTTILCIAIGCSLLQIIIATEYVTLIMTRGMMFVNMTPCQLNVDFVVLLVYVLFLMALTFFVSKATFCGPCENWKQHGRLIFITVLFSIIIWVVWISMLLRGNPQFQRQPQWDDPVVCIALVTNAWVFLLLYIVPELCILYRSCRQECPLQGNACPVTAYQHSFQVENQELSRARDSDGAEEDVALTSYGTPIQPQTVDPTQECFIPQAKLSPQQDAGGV
Assay [7] addresses T2, human GPRC5A. Put plainly: FACS, CHOK1-hGPRC5A cells. Here is the method:
as §1
The source holds these as a separate data set.

Assay [8] addresses T3, human GPRC5B. Put plainly: FACS, CHOK1-hGPRC5B cells. How it is done:
as §1
The source holds these as a separate data set.

Assay [9] concerns the target T4, human GPRC5C. Put plainly: FACS, CHOK1-hGPRC5C cells. Here is the method:
as §1
This is another data set of the same source.

Assay [10] addresses T5, hGPRC5D-LVP protein (human, UniProt Q9NZD1 1-345, limits assumed). Put plainly: competitive ELISA, competitor Biotin-5F11; antibody at 0 nM. For orientation: In an ELISA, binding on a coated surface is turned into a signal by an enzyme label.
Assay [11] addresses T5, hGPRC5D-LVP protein. Put plainly: competitive ELISA, competitor Biotin-5F11; antibody at 0.07 nM.
The target of assay [12] is T5, hGPRC5D-LVP protein. Put plainly: competitive ELISA, competitor Biotin-5F11; antibody at 0.21 nM.
T5 sequence (Q9NZD1 whole entry): as above
Assay [13] has as its target T5, hGPRC5D-LVP protein. Put plainly: competitive ELISA, competitor Biotin-5F11; antibody at 0.62 nM.
Assay [14] concerns the target T5, hGPRC5D-LVP protein. Put plainly: competitive ELISA, competitor Biotin-5F11; antibody at 1.85 nM.
Assay [15] concerns the target T5, hGPRC5D-LVP protein. Put plainly: competitive ELISA, competitor Biotin-5F11; antibody at 5.56 nM.
The target of assay [16] is T5, hGPRC5D-LVP protein. Put plainly: competitive ELISA, competitor Biotin-5F11; antibody at 16.67 nM.
Assay [17] deals with T5, hGPRC5D-LVP protein. Put plainly: competitive ELISA, competitor Biotin-5F11; antibody at 50.00 nM.

B1: GPRC5D-Mab07scFv-Fc (scFv)
scFv: QVQLQQSGAEVVRPGTSVKVSCKASGYAFTNYLIEWLKQRPGQGLEWIGMINPGRGNTNYNEKFKGKATLTADKASSTAYMQISSLTSEDSAVYFCARNWDVWGQGTTLTVSSGGGGSGGGGSGGGGSDVVMTQTPLSLPVSLGDQASISCRSSQSLVYSNGNTYLHWYLQKPGQSPKLLIYKVSNRFSGVPDRFSGSGSGTDFTLKISRVEAEDLGVYFCSQSTHVPWTFGGGTKLEIK[human IgG1 Fc with C220S (EU numbers) not shown]
notes: Human-mouse chimeric scFv-Fc; also called GPRC5D-mab07 chimeric antibody
For orientation: EC50 means the concentration at which the effect is half-maximal. A lower EC50 goes with an effect from little substance. As for B1, the EC50 is 1.87 nM with human GPRC5D [1], 0.77 nM in the assay with human GPRC5D [2] and 2.3 nM with human GPRC5D [6]. Further, the “Maximum mean fluorescence intensity” value is 2810 with human GPRC5D [1]; 5240 with human GPRC5D [2]; 440 in the assay with human GPRC5D [6]; 86 with human GPRC5A [7]; 48 with human GPRC5B [8]; 42 with human GPRC5C [9]. The binding result with human GPRC5A [3], with human GPRC5B [4] and in the assay with human GPRC5C [5] was “no binding” throughout. The OD450 with hGPRC5D-LVP protein [10] came out at 0.79; in the assay with hGPRC5D-LVP protein [11], 0.83; with hGPRC5D-LVP protein [12], 0.73; with hGPRC5D-LVP protein [13], 0.59; in the assay with hGPRC5D-LVP protein [14], 0.47; in the assay with hGPRC5D-LVP protein [15] it was 0.37. In addition, the OD450 in the assay with hGPRC5D-LVP protein [16] turned out to be 0.29; in the assay with hGPRC5D-LVP protein [17], 0.25.

B2: GPRC5D-Mab05scFv-Fc (scFv)
scFv: QVQLQQSGAELARPGASVMLSCKASGYTFTSYGISWVKQRTGQGLEWIGEIYPRSGNTYYNEKFKGKATLTADKSSSTAYMELRSLTSEDSAVYFCARGRAYGRNYPMDYWGQGTSVTVSSGGGGSGGGGSGGGGSDILLTQSPAILSVSVGERVSFSCRASQSIGTSIHWYQQRTNGSPRLLIKYASESISGIPSRFSGSGSGTDFTLSINSVESEDIADYYCQQSNSWPYTFGGGTKLEIK[human IgG1 Fc with C220S (EU numbers) not shown]
notes: Human-mouse chimeric scFv-Fc; also called GPRC5D-mab05 chimeric antibody
For the molecule B2, the results for the EC50 with human GPRC5D [1], with human GPRC5D [2] and with human GPRC5D [6] were 7.78 nM, 1.82 nM and 17.2 nM, respectively. The “Maximum mean fluorescence intensity” value with human GPRC5D [1] was 5130; in the assay with human GPRC5D [2], 6450; in the assay with human GPRC5D [6], 1140; with human GPRC5A [7], 97; with human GPRC5B [8] it was 106; in the assay with human GPRC5C [9], 108. Moreover, the binding result in the assay with human GPRC5A [3], with human GPRC5B [4] and with human GPRC5C [5] was “no binding” throughout. Besides, the OD450 in the assay with hGPRC5D-LVP protein [10] worked out at 1.3; with hGPRC5D-LVP protein [11] it was 1.13; with hGPRC5D-LVP protein [12], 1; with hGPRC5D-LVP protein [13], 0.78; with hGPRC5D-LVP protein [14], 0.55; in the assay with hGPRC5D-LVP protein [15], 0.41. For the same molecule, the results for the OD450 with hGPRC5D-LVP protein [16] and with hGPRC5D-LVP protein [17] were 0.31 and 0.22, respectively.

B3: GPRC5D-Mab06scFv-Fc (scFv)
scFv: QVQLKQSGPGLVQPSQSLSITCTVSGFSLTSYGVNWIRQSPGKGLEWLGVIWSGGNTDYNAAFRSRLSISKDNSKSQVFFKMNSLQADDTAIYYCARGQLGRPYWYFDVWGTGTSVTVSSGGGGSGGGGSGGGGSDIVMTQSHKFMSTSVGDRVSITCKASQDVRTAVAWYQQKPGQSPKLLIYWASTRHTGVPDRFTGSRSGTDYTLTISSVQAEDLALYYCQQHYSTPLTFGAGTKLELK[human IgG1 Fc with C220S (EU numbers) not shown]
notes: Human-mouse chimeric scFv-Fc; also called GPRC5D-mab06 chimeric antibody
As for B3, the EC50 with human GPRC5D [1] stood at 3.94 nM; in the assay with human GPRC5D [2], 0.73 nM; with human GPRC5D [6], 2.43 nM. Further, the “Maximum mean fluorescence intensity” value with human GPRC5D [1] is 3920; with human GPRC5D [2], 5970; in the assay with human GPRC5D [6], 653; with human GPRC5A [7] it was 76; in the assay with human GPRC5B [8] it was 53; in the assay with human GPRC5C [9], 45. The binding result with human GPRC5A [3], with human GPRC5B [4] and with human GPRC5C [5] was “no binding” each time. Moreover, the OD450 amounted to 0.86 in the assay with hGPRC5D-LVP protein [10]; 0.78 in the assay with hGPRC5D-LVP protein [11]; 0.66 with hGPRC5D-LVP protein [12]; 0.48 with hGPRC5D-LVP protein [13]; 0.37 with hGPRC5D-LVP protein [14]; 0.29 in the assay with hGPRC5D-LVP protein [15]. Besides, the figures for the OD450 with hGPRC5D-LVP protein [16] and with hGPRC5D-LVP protein [17] were 0.19 and 0.16, respectively.

B4: GPRC5D-Mab02scFv-Fc (scFv)
scFv: QVQLQQPGAELVKPGASVKMSCKASGYTFSSYWITWVKQRPGQGLDWIGDFYPRNGDTNYNKKFKNKATLTVDTSSSTAYMQLSSLTSEDSAVYYCARSRAYYGRRGFDYWGQGTTLTVSSGGGGSGGGGSGGGGSQIVLTQSPAIMSASPGEKVTMTCSAGSSVSYMYWYQQKPGSSPRVLIYDTSNLASGVPVRFSGSGSGTSYSLIISRMEAEDAATYYCQQWSNYPLTFGAGTKLELK[human IgG1 Fc with C220S (EU numbers) not shown]
notes: Human-mouse chimeric scFv-Fc; also called GPRC5D-mab02 chimeric antibody
On to B4, for which the EC50 in the assay with human GPRC5D [1] is 10.3 nM; with human GPRC5D [2], 1.88 nM; in the assay with human GPRC5D [6] it was 2.2 nM. Moreover, the “Maximum mean fluorescence intensity” value in the assay with human GPRC5D [1] amounted to 3340; with human GPRC5D [2] it was 7360; with human GPRC5D [6], 535; in the assay with human GPRC5A [7], 72; in the assay with human GPRC5B [8], 77; with human GPRC5C [9], 71. Moreover, the binding result with human GPRC5A [3], with human GPRC5B [4] and with human GPRC5C [5] was “no binding” in each case. Also, the OD450 with hGPRC5D-LVP protein [10] came to 1.21; with hGPRC5D-LVP protein [11], 1.21; with hGPRC5D-LVP protein [12], 1.05; with hGPRC5D-LVP protein [13], 1.06; with hGPRC5D-LVP protein [14], 0.85; with hGPRC5D-LVP protein [15], 0.59. Besides, the values for the OD450 with hGPRC5D-LVP protein [16] and in the assay with hGPRC5D-LVP protein [17] were 0.46 and 0.34, respectively.
